# Assay results taken from paper PMC12040169 (PLOS Biology, 2025).
# Some of the results follow.
# System: T1, C. trachomatis L2/434/Bu expressing GFP (CTL2-GFP)
# T1 construct: L2/434/Bu GFP intracellular growth in HeLa cells
# Parameters: species or system HeLa; C. trachomatis total inclusion area by high-content imaging, normalised to DMSO
# Conditions: total inclusion area; 28.5 h, 10 µM; inhibitor
# How it was run: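 Post-fluorescence-read fixation, DNA staining with Hoechst and high-content imaging; GFP inclusion area and number per well, and nuclei counts, used as proxies for bacterial growth and host viability.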
row,Compound,% of control remaining
1,FC(F)(F)c1ccnc(Sc2nc[nH]n2)n1 [CBK093806],103.298
2,CS(=O)(=O)c1ccc(CNC(=O)c2cc(-c3ccc(C(=O)N4CCOCC4)cc3)cnc2N)cc1 [CBK158599],110.983
3,O=C(CCn1ccnc1)NCC1Cc2ccccc2O1 (stereo not drawn) [CBK283062],94.3922
4,CCn1ncc(S(=O)(=O)N2CCC(c3cccc(Cc4ccccc4C)n3)CC2)c1C [CBK286116],77.817
5,O=C(O)CCc1ccc(-c2ccc(F)cc2)n1-c1cc(Cl)ccc1Cl [CBK264754],93.2702
6,Cc1ccc(-n2c(SCC(=O)NCc3ccccc3)nnc2-c2ccc(Cl)cc2)cc1C [CBK265909],142.442
7,O=C1COc2ccccc2C/C=C/CC2(CCCN(C(=O)CN3CSCC3=O)C2)CN1 (stereo not drawn) [CBK292035],104.195
8,O=C(NC1CC1)c1cnoc1-c1ccccc1 [CBK154935],106.182
9,O=C1CN(C(=O)NCCOc2ccccc2)CCN1 [CBK155871],80.6227
10,COCc1cc(CN2CCN(C)CC2)c(O)c2ncccc12 [CBK263546],73.5023
11,O=C(CCc1nc2ccccc2nc1O)OCc1cccc([N+](=O)[O-])c1 [CBK266804],107.075
12,S=C(Nc1ccc(Nc2ccccc2)cc1)N1CCN(C/C=C/c2ccccc2)CC1 [CBK266149],96.8463
13,Cc1cc(C)c(S(=O)(=O)NC(CC(=O)O)c2ccccc2)cc1C (stereo not drawn) [CBK267081],120.597
14,COc1ccccc1-c1cc2c(=O)n(C)c(-c3ccc(CNC(C)C)cc3)cc2o1 [CBK051699C],39.2296
15,COC(=O)c1sc(NC(=S)Nc2ccn(C)n2)c(C(=O)OC)c1C [CBK267078],128.5
16,CCOc1ccc(S(=O)(=O)Nc2ccc(O)c(C(=O)O)c2)cc1 [CBK299810],99.1792
17,Cc1[nH]c2ccccc2c1CCNC(=O)N(Cc1cnn(C)c1)C1CC1 [CBK306661],69.2932
18,CC(=O)NCCOc1nc(N(C)C)nc(N2CCOCC2)n1 [CBK266651],126.335
19,COc1ccc(N(CC(=O)Nc2cccnc2)S(=O)(=O)c2ccc(C)cc2)cc1 [CBK264033],100.345
20,COc1ccc(C(=O)N2CCCN(Cc3ccc(C#N)cc3)CC2)cc1 [CBK305374],36.0747
21,COCCOc1ccc(C(=O)N2CCN(c3ccccc3)CC2)cc1 [CBK304626],97.7593

row,Compound,% of control remaining
1,Cc1cccc(NC(=O)CN2C(=O)S/C(=C\c3cc(C)n(-c4ccc(N(C)C)cc4)c3C)C2=O)c1 [CBK264586],114.133
2,Cn1c(=O)cc(NCCCCCC(=O)O)[nH]c1=O [CBK286574],98.1108
3,CN(Cc1nccn1C)c1nccc(N2CCN[C@H]3CS(=O)(=O)C[C@H]32)n1 [CBK307394],76.8123
4,CC1CC(=O)C2=C(C1)NN=C(c1cccc(C(F)(F)F)c1)C2 (stereo not drawn) [CBK020138],98.2888
5,Cn1c(SCC(=O)c2ccc([N+](=O)[O-])cc2)nnc1-c1ccc(N)cc1 [CBK264843],78.013
6,Cc1ncc([N+](=O)[O-])n1CCSc1nnc(SCc2ccccc2)s1 [CBK264751],107.66
7,COC(=O)c1ccc2c(c1)C(=O)N(c1ccc(C(=O)OCC(C)C)cc1)C2=O [CBK156802],91.9641
8,O=C(NC1Cc2ccccc2C1)c1nccc2ccccc12 [CBK200356],109.522
9,O=C1NN=C(c2ccccc2)CC1c1c[nH]c2ccccc12 (stereo not drawn) [CBK288235],88.4159
10,CC(=O)N1CCC(C(=O)NC(c2ccc3c(c2)OCO3)c2cccs2)CC1 (stereo not drawn) [CBK059881],108.39
11,O=C(O)COc1ccccc1/C=N/n1c(S)nnc1-c1ccncc1 [CBK265253],119.145
12,O=C1CC(c2cccnc2)=NN1c1ccc(Cl)cc1Cl [CBK067764],103.553
13,CCn1cncc1CN(CCCn1ccnc1)Cc1ccc(C)s1 [CBK283104],88.9486
14,COCCNc1nc(-c2ccc3ccccc3c2)cn2ccnc12 [CBK066138],129.232
15,Cn1cc(CN2CCNC(=O)C2c2ccccc2C(F)(F)F)cn1 (stereo not drawn) [CBK306407],62.4992
16,O=C(NCCF)c1cn2cc(-c3cccs3)n(CC3CC3)c(=O)c2n1 [CBK307367],44.9513
17,Cc1ccc(-c2ccc(N3CCN(C)CC3)nc2)cc1C [CBK036937],104.773
18,Cc1nc2ccc(NC(=O)c3cccc(C(F)(F)F)c3)cc2nc1C [CBK270221],86.9042
19,CCN1CCN(CC(=O)N/N=C/c2ccc(F)cc2)CC1 [CBK261615],86.6152
20,O=C(c1ccccn1)N1C[C@@H]2OCC(=O)N(Cc3ccccc3)[C@@H]2C1 [CBK289698],93.3972
21,CCCS(=O)(=O)NC1CCN(c2nc(C(F)(F)F)nc3ccsc23)CC1 [CBK304591],44.2966

row,Compound,% of control remaining
1,CC(=O)Nc1cccc(Oc2nccnc2-c2cnn(Cc3ccccc3)c2)c1 [CBK107096],104.218
2,OCCNCc1cc(Br)ccc1OCc1ccc(F)cc1 [CBK266421C],102.143
3,O=C(Nc1ccncc1)c1cc2cc(OC(F)(F)F)ccc2[nH]1 [CBK107369],106.602
4,O=C(NCCC1SC(NC2CCCCCC2)=NC1=O)Nc1ccc(C(F)(F)F)cc1Cl (stereo not drawn) [CBK067682],114.902
5,CC(C)c1cc(C(=O)NC2CCN(c3ncccc3C#N)CC2)n(C)n1 [CBK306975],58.4744
6,Cc1c(C(=O)Nc2cccnc2)nnn1-c1cccc(C(F)(F)F)c1 [CBK107389],101.26
7,Cn1nccc1C(=O)N1CCN(c2ncccn2)CC1 [CBK288240],113.582
8,CC1CCCCN1CCCNc1cc(NS(=O)(=O)c2cn(C)cn2)cc2ccoc12 (stereo not drawn) [CBK067940C],48.3351
9,C[C@@H](c1ccccc1)n1c(=O)[nH]c2ncc(-c3cccc4ncccc34)nc21 [CBK064394],84.2317
10,CC1(C)CC(=O)C(=CNCCC(c2ccccc2)c2ccccc2)C(=O)C1 [CBK262057],87.6214
11,COc1ccc(S(=O)(=O)N(C)CC(=O)NCc2cccnc2)cc1Cl [CBK268089],89.739
12,CC(C)(C)C(=O)N1CCC(c2nc3ccccc3cc2N)CC1 [CBK285039],106.585
13,Cn1nccc1CNCc1cc(Br)ccc1Cl [CBK305100],67.2068
14,O=C(Nc1c(F)cc(F)cc1OC1CCNCC1)c1cccnc1 [CBK050275T],92.6819
15,Cc1cc(C(F)(F)F)nc(NCc2ccco2)n1 [CBK269555],93.7716
16,Cc1c(NC(=O)CSc2nnc3c4ccccc4n(C(C)C)c3n2)c(=O)n(-c2ccccc2)n1C [CBK263916],122.298
17,COCCN1CCOC2(CCN(C(=O)c3ccc4ccccc4c3)CC2)C1c1ccccc1O (stereo not drawn) [CBK116232],88.2586
18,CO[C@H]1CNC[C@@H]1NC(=O)c1cccc2c1NCCC2 [CBK307421],63.5113
19,O=S(=O)(c1ccc(Oc2ccc(S(=O)(=O)N3CCCCCC3)cc2)cc1)N1CCCCCC1 [CBK261729],95.7662
20,C(=C\c1ccccc1)/CN1CCN(CCCc2ccccc2)CC1 [CBK261897],99.5923
21,CC(CNC(=O)Cn1nc(C(F)(F)F)c2c1CCC2)N1CCCC1 (stereo not drawn) [CBK282212],108.229

row,Compound,% of control remaining
1,CN(C)C1c2cccc3cccc(c23)C1NS(C)(=O)=O (stereo not drawn) [CBK265851],122.864
2,Cc1nc(C(F)(F)F)ccc1C(=O)N1C=CC(C(F)(F)F)=NCC1 [CBK057187],18.2018
3,CCn1c(CNC(=O)C(C)Cn2cc(Cl)cn2)nc2ccccc21 (stereo not drawn) [CBK281392],88.5102
4,Cc1cnn(CCNc2cc(C(C)C)nc3ccnn23)c1 [CBK306792],62.6209
5,COc1ccc(-c2cncc(NCc3ccncc3)n2)cc1 [CBK065394],70.7647
6,COc1ccnc(Cn2ncc(N3CCCC3)cc2=O)c1 [CBK304379],98.3139
7,COc1ccc(C2(C(=O)NCCc3c[nH]cn3)CC2)cc1 [CBK149834],94.2202
8,C=CCN(C)C(=O)[C@H]1C[C@@H](O)[C@H](O)[C@@H]2N=C(Nc3cc(C)cc(C)c3)S[C@@H]21 [CBK288948],107.07
9,Cc1ccc(S(N)(=O)=O)cc1NC(=O)Cc1ccccc1 [CBK024413],101.488
10,O=C(CCc1nc2ccccc2[nH]1)Nc1ccc(F)cc1 [CBK267238],87.3568
11,Cc1ccc(Nc2cc(-c3cccc(N)c3)ncn2)cc1NS(C)(=O)=O [CBK091145],135.41
12,O=C(O)CCC(=O)Nc1nc(-c2ccccc2)cs1 [CBK286947],58.8401
13,CC(C)CCc1csc(C2CN3CCCC3CO2)n1 (stereo not drawn) [CBK304266],63.2756
14,O=C(NC(=S)CC1C=NCS1)c1ccccc1 (stereo not drawn) [CBK020794],82.1868
15,CS(=O)(=O)N1CC2(CCN(CCc3ccccc3)CC2)c2ccccc21 [CBK084015],102.668
16,Cc1cc(Cn2nnc(-c3cccnc3)n2)cc(C)c1O [CBK291130],99.8127
17,N#Cc1sc2c(c1NC(=O)C(F)(F)F)CCCC2 [CBK019233],72.7843
18,O=C(O)CCc1ccc(-c2ccc(N3CCN(CCN4CCCC4)CC3)nc2)cc1 [CBK037796],119.318
